Experimental data published in the supplement of paper PMC8728848.
This is one part of the list.

Tests used:
Assay in all cases: glycan array binding signal (z-score within array); higher = stronger binding
Details in all cases: glycan notation: IUPAC condensed, linker removed
[1] = biological target: Gal(b1-4)GlcNAc(b1-3)Gal(b1-4)GlcNAc(b1-3)Gal(b1-4)GlcNAc(b1-3)Gal(b1-4)GlcNAc(b1-3)Gal(b1-4)GlcNAc(b1-2)Man(a1-3)[Gal(b1-4)GlcNAc(b1-3)Gal(b1-4)GlcNAc(b1-3)Gal(b1-4)GlcNAc(b1-3)Gal(b1-4)GlcNAc(b1-3)Gal(b1-4)GlcNAc(b1-2)Man(a1-6)]Man(b1-4)GlcNAc(b1-4)[Fuc(a1-6)]GlcNAc
In short: (§1)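 Negative Z-scores can be read as non-binding. The Z-score is calculated within each array and then averaged across arrays of one protein sequence at different concentrations or buffers and across linkers. Arrays, 3228 in all, were curated from the Consortium for Functional Glycomics database and kept only where the protein sequence was available.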

[2] = biological target: Gal(b1-4)GlcNAc(b1-3)Gal(b1-4)GlcNAc(b1-3)Gal(b1-4)GlcNAc(b1-3)Gal(b1-4)GlcNAc(b1-3)Gal(b1-4)GlcNAc(b1-2)[Gal(b1-4)GlcNAc(b1-3)Gal(b1-4)GlcNAc(b1-3)Gal(b1-4)GlcNAc(b1-3)Gal(b1-4)GlcNAc(b1-3)Gal(b1-4)GlcNAc(b1-6)]Man(a1-6)[Gal(b1-4)GlcNAc(b1-3)Gal(b1-4)GlcNAc(b1-3)Gal(b1-4)GlcNAc(b1-3)Gal(b1-4)GlcNAc(b1-3)Gal(b1-4)GlcNAc(b1-2)Man(a1-3)]Man(b1-4)GlcNAc(b1-4)[Fuc(a1-6)]GlcNAc
In short: as §1

[3] = biological target: Gal(b1-4)GlcNAc(b1-3)Gal(b1-4)GlcNAc(b1-3)Gal(b1-4)GlcNAc(b1-3)Gal(b1-4)GlcNAc(b1-3)Gal(b1-4)GlcNAc(b1-3)Gal(b1-4)GlcNAc(b1-2)Man(a1-3)[Gal(b1-4)GlcNAc(b1-3)Gal(b1-4)GlcNAc(b1-3)Gal(b1-4)GlcNAc(b1-3)Gal(b1-4)GlcNAc(b1-3)Gal(b1-4)GlcNAc(b1-3)Gal(b1-4)GlcNAc(b1-2)Man(a1-6)]Man(b1-4)GlcNAc(b1-4)GlcNAc
In short: as §1

[4] = biological target: Gal(b1-4)GlcNAc(b1-3)Gal(b1-4)GlcNAc(b1-3)GalNAc
In short: as §1

[5] = biological target: Gal(b1-4)GlcNAc(b1-3)Gal(b1-4)GlcNAc(b1-3)[Gal(b1-4)GlcNAc(b1-3)Gal(b1-4)GlcNAc(b1-6)]GalNAc
In short: as §1

[6] = biological target: Gal(b1-4)GlcNAc(b1-3)Gal(b1-4)GlcNAc(b1-6)[Gal(b1-3)]GalNAc
In short: as §1

[7] = biological target: Gal(b1-4)GlcNAc(b1-3)Gal(b1-4)[Fuc(a1-3)]GlcNAc(b1-3)Gal(b1-4)[Fuc(a1-3)]GlcNAc
In short: as §1

[8] = biological target: Gal(b1-4)GlcNAc(b1-3)GalNAc
In short: as §1

[9] = biological target: Gal(b1-4)GlcNAc(b1-3)[Fuc(a1-3)GlcNAc(b1-6)]Gal(b1-4)Glc
In short: as §1

[10] = biological target: Gal(b1-4)GlcNAc(b1-3)[Gal(b1-4)GlcNAc(b1-6)]Gal(b1-4)GlcNAc
In short: as §1

[11] = biological target: Gal(b1-4)GlcNAc(b1-3)[GlcNAc(b1-6)]Gal(b1-4)GlcNAc
In short: as §1

[12] = biological target: Gal(b1-4)GlcNAc(b1-6)Gal(b1-4)GlcNAc
In short: as §1

[13] = biological target: Gal(b1-4)GlcNAc(b1-6)GalNAc
In short: as §1

[14] = biological target: Gal(b1-4)GlcNAc(b1-6)[Gal(b1-3)]GalNAc
In short: as §1

[15] = biological target: Gal(b1-4)GlcNAc(b1-6)[Gal(b1-4)GlcNAc(b1-3)]GalNAc
In short: as §1

Gal(b1-4)GlcNAc6P = biological target: Gal(b1-4)GlcNAc6P
In short: as §1

Gal(b1-6)Gal = biological target: Gal(b1-6)Gal
In short: as §1

Gal3S(b1-3)GalNAc = biological target: Gal3S(b1-3)GalNAc
In short: as §1

Gal3S(b1-3)GlcNAc = biological target: Gal3S(b1-3)GlcNAc
In short: as §1

B1: Epa1to9 (Candida glabrata) (protein)
chain: MGSSHHHHHHSSGLVPRGSHMTSSNDISLASKDPTTFPLGCSPDITTPKKGLSMELYSYDFRKKGSYPCWDAAYLDPNYPRTGYKSHRLLAKVDGVTGNINFYYHATKGCTPQLGHLPASYNYPKPLTMTNFTMLLYGYFRPKVTGFHTFTISADDLLFVNFGAGNAFDCCRRDSSADHFGNYQAYAIWGSKTAKDELTVHLDAGVYYPIRLFYNNRDYHGALSFTFKTESNENTVSDFSEYFFSLDDTEEGCPGLISYD
- glycan array binding signal (z-score) [1]: -0.083
- glycan array binding signal (z-score) [2]: 0.276
- glycan array binding signal (z-score) [3]: 0.187
- glycan array binding signal (z-score) [4]: -0.089
- glycan array binding signal (z-score) [5]: 0.572
- glycan array binding signal (z-score) [6]: 0.549
- glycan array binding signal (z-score) [7]: -0.103
- glycan array binding signal (z-score) [8]: 0.134
- glycan array binding signal (z-score) [9]: -0.065
- glycan array binding signal (z-score) [10]: -0.155
- glycan array binding signal (z-score) [11]: 0.461
- glycan array binding signal (z-score) [12]: 1.99
- glycan array binding signal (z-score) [13]: -0.027
- glycan array binding signal (z-score) [14]: 1.69
- glycan array binding signal (z-score) [15]: 0.209
- glycan array binding signal (z-score) (Gal(b1-4)GlcNAc6P): -0.321
- glycan array binding signal (z-score) (Gal(b1-6)Gal): 0.228
- glycan array binding signal (z-score) (Gal3S(b1-3)GalNAc): -0.355
- glycan array binding signal (z-score) (Gal3S(b1-3)GlcNAc): -0.37
